Measurements: the antibiotic and cytotoxicity screens of Wong et al. (2023)
This is one part of the list.

test system: HSkMC (human skeletal muscle cells); assay: cytotoxicity call (relative viability < 0.9); settings: 10 µM

SMILES	cytotoxicity call
CO[C@H]1CCN(C(=O)CN(C)C)[C@@H]2CCO[C@@H]12	inactive
O=C(C[C@H]1CC[C@@H](NC(=O)CN2CCOCC2)[C@H](CO)O1)NCCc1ccccc1	inactive
COc1ccc(CN(C)C[C@H]2Oc3c(NC(=O)C4CCOCC4)cccc3C(=O)N([C@@H](C)CO)C[C@@H]2C)cc1	inactive
C[C@H](CO)N1C[C@H](C)[C@@H](CN(C)C(=O)Nc2cccc3ccccc23)OCCCC[C@H](C)Oc2ccc(NC(=O)CCCN(C)C)cc2C1=O	inactive
O=C(Cc1ccccn1)NCC[C@@H]1CC[C@H](NC(=O)CN2CCOCC2)[C@H](CO)O1	inactive
C[C@@H]1CCCCO[C@H](CN(C)S(=O)(=O)c2ccc(Cl)cc2)[C@@H](C)CN([C@H](C)CO)C(=O)c2cc(NC(=O)Nc3ccc(C(F)(F)F)cc3)ccc2O1	active
CC(C)NC(=O)Nc1ccc2c(c1)C(=O)N([C@@H](C)CO)C[C@H](C)[C@H](CN(C)S(=O)(=O)c1ccc(Cl)cc1)O2	inactive
C[C@@H]1CCCCO[C@H](CN(C)Cc2ccc(C(=O)O)cc2)[C@@H](C)CN([C@@H](C)CO)C(=O)c2cc(NC(=O)Cc3ccccc3)ccc2O1	inactive
C[C@@H]1CCCCO[C@@H](CN(C)C(=O)C2CCCCC2)[C@@H](C)CN([C@H](C)CO)C(=O)c2cc(NS(=O)(=O)c3ccc(Cl)cc3)ccc2O1	active
C[C@@H]1CCCCO[C@H](CN(C)S(=O)(=O)c2cn(C)cn2)[C@@H](C)CN([C@H](C)CO)C(=O)c2cc(NS(=O)(=O)c3ccc(F)cc3)ccc2O1	inactive
